Further values from the same series stand in other lists.
Experiments:
Assay in all cases: concentration in plasma after dosing
[1] = tested on: Rat; details: dosed: Methyleugenol, 150 mg/kg, oral, Female, F344
[2] = tested on: Rat; details: 1 h; dosed: Methyleugenol; 37 mg/kg; oral; Male; F344
[3] = tested on: Rat; details: dosed: Methyleugenol, 75 mg/kg, oral, Male, F344/N
[4] = tested on: Rat; details: dosed: Methyleugenol, 75 mg/kg, oral, Female, F344/N
[5] = tested on: Rat; details: 0.5 h; dosed: Methyleugenol; 37 mg/kg; oral; Female; F344
[6] = tested on: Rat; details: dosed: Methyleugenol, 75 mg/kg, oral, Female, F344
[7] = tested on: Rat; details: dosed: Methyleugenol, 150 mg/kg, oral, Female, F344/N
[8] = tested on: Rat; details: dosed: Methyleugenol, 150 mg/kg, oral, Female, F344/N; remark: listed apart in the source
[9] = tested on: Rat; details: dosed: Methyleugenol, 150 mg/kg, oral, Male, F344/N
[10] = tested on: Rat; details: dosed: Methyleugenol, oral
[11] = tested on: Rat; details: dosed: Methyleugenol, 75 mg/kg, oral, Male, F344/N; remark: listed apart in the source
[12] = tested on: Rat; details: dosed: Methyleugenol, 75 mg/kg, oral, Female, F344; remark: listed apart in the source
[13] = tested on: Rat; details: dosed: Methyleugenol, 37 mg/kg, oral, Male, F344
[14] = tested on: Rat; details: dosed: Methyleugenol, 150 mg/kg, oral, Female, F344; remark: listed apart in the source
[15] = tested on: Rat; details: dosed: Methyleugenol, 75 mg/kg, oral, Male, F344
[16] = tested on: Rat; details: dosed: Methyleugenol, 75 mg/kg, oral, Female, F344; remark: listed apart in the source
[17] = tested on: Rat; details: dosed: Methyleugenol, 150 mg/kg, oral, Male, F344
[18] = tested on: Rat; details: dosed: Methyleugenol, 75 mg/kg, oral, Male, F344/N; remark: listed apart in the source

C=CCc1ccc(OC)c(OC)c1 [Methyleugenol]
Details	concentration in plasma [ng/mL]
[1], 0.5 h	2080
[1], 1.5 h	678
[3], 1.5 h	605
[3], 12 h	7.52
[4], 5 min	611
[4], 6 h	205
[6], 0.5 h	1480
[6], 1.5 h	318
[7], 6 h	384
[7], 10 min	2710
[8], 0.5 h	1070
[8], 4 h	1430
[9], 2 h	770
[9], 24 h	6.38
[11], 1.5 h	130
[11], 8 h	53.8
[12], 1 h	993
[12], 2 h	284
[13], 0.5 h	252
[13], 1.5 h	104
[14], 5 min	16400
[14], 6 h	63
[15], 0.5 h	859
[15], 1.5 h	844
[16], 0.5 h	1810
[16], 1.5 h	454
[17], 1 h	1320
[17], 2 h	623
[18], 2 h	97.5
[18], 5 min	4520

Details	concentration in plasma [ng/mL]
[2]	137
[5]	192

concentration in plasma [ng/mL], [10]
Details	37 mg/kg	75 mg/kg	150 mg/kg
0.25 h, Female, F344	417	746	2140
0.25 h, Female, F344/N	–	–	2170
0.25 h, Male, F344	543	1060	1360
0.25 h, Male, F344/N	–	–	985
0.5 h, Female, F344	305	911	5070
0.5 h, Female, F344/N	229	722	3040
0.5 h, Male, F344	292	1210	1320
0.5 h, Male, F344/N	–	302	506
1 h, Female, F344	101	1100	619
1 h, Female, F344/N	15.2	366	1260
1 h, Male, F344	262	1680	1820
1 h, Male, F344/N	–	731	743
1.5 h, Female, F344	–	222	1140
1.5 h, Female, F344/N	64.3	92.9	2230
1.5 h, Male, F344	56	583	959
1.5 h, Male, F344/N	–	–	731
2 h, Female, F344	69	201	379
2 h, Female, F344/N	13.8	17.7	1620
2 h, Male, F344	82	508	531
2 h, Male, F344/N	–	211	–
2 min, Female, F344/N	–	47.2	–
2 min, Male, F344/N	–	583	–
3 h, Female, F344/N	216	48.8	–
4 h, Female, F344	–	70	260
4 h, Female, F344/N	–	64.8	1390
4 h, Male, F344	–	–	1240
4 h, Male, F344/N	–	151	393
5 h, Female, F344/N	9.6	265	855
5 h, Male, F344/N	–	118	1500
5 min, Female, F344	1470	2250	3540
5 min, Female, F344/N	–	205	4530
5 min, Male, F344	546	1290	5760
5 min, Male, F344/N	–	2020	695
6 h, Female, F344	–	–	180
6 h, Female, F344/N	–	193	802
6 h, Male, F344	–	108	427
6 h, Male, F344/N	–	83.5	803
8 h, Female, F344/N	7.94	–	361
8 h, Male, F344/N	–	254	720
10 min, Female, F344/N	–	841	4720
10 min, Male, F344/N	–	1730	1640
12 h, Female, F344/N	–	9.22	37.5
12 h, Male, F344/N	–	13.6	36.5
20 min, Female, F344/N	–	438	–
20 min, Male, F344/N	–	1390	–
24 h, Male, F344/N	–	–	12.7

Reference: EPA's CvTdb concentration-time database
